# “And” between values parts separate entries of the source, which are not always exact repeats. Identical values can stand only once. Out of some 420,000 compounds screened, about 50,000 (12%) were called active. This list was built around the results that the source calls inconclusive (neither active nor inactive); the mix of calls is not that of the screen. Calls follow the shape of the dose curve; as a rule, active = well fitted inhibition curve with a large enough effect; inconclusive = small, poorly fitted or top-dose-only effect; inactive = flat fitted curve, though single readings scatter. Where the call is inconclusive, the potency comes from a doubtful curve fit.
# Test: qHTS for Inhibitors of human tyrosyl-DNA phosphodiesterase 1 (TDP1): qHTS in cells in presence of CPT; also: nearly all actives have a fitted effect of over 55% in size
# Conditions: chicken DT40 Tdp1-/-;hTDP1 cells + 20 nM CPT, ATP luminescence, 48 h; activity change, negative = growth inhibition: at 46.2 µM (top of the series) unless noted
# Summary of the method: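 Cell growth measured by CellTiter-Glo luminescence after a minimum 48 h, 37 C compound exposure with 20 nM CPT in Tdp1-knockout DT40 cells stably expressing hTDP1, seeded 400/well; qHTS titration format.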
# % is scaled to controls: 0 for no effect and ±100 for the full control effect; potency is read from the fitted curve at half-maximal effect; tags tell the direction and shape of the fitted curve.
SMILES,"activity change, negative = growth inhibition",Potency
COC1OCC(O)C(NC(=O)N(C)N=O)C1O (centres undefined),inactive: -11.5%,–
O=C(Nc1nc2n(n1)C(c1ccccc1)C=C(c1ccccc1)N2)c1ccccc1 (centres undefined),–,active: 16.4 µM
COc1ccc(CNC(=O)CSc2n[nH]c(-c3ccc(F)cc3)n2)cc1,inactive: -25.8%,–
COCc1c(C(=O)N2CCN(c3ccc(C(F)(F)F)cn3)CC2)oc2ccccc12,–,"inconclusive: 16.4 µM [inhibitor, single point]"
O=C(c1ccc([N+](=O)[O-])cc1)N1CCN(c2cccc3[nH]ccc23)CC1,inactive: -24%,–
CC(c1ccccc1)N1CC(C(=O)Nc2nccs2)CC1=O (centres undefined),inactive: 3.11%,–
c1ccc(-c2nc(-c3cccs3)[nH]c2-c2ccccc2)cc1,–,"inconclusive: 18.4 µM [inhibitor, single point]"
CC1=Nc2ccccc2N=C(NC(=O)CN2CCN(c3ccc(F)cc3)CC2)C1c1ccccc1 (centres undefined),–,"inconclusive: 18.4 µM [inhibitor, single point]"
COc1cc(Cl)c(C)cc1NC(=O)CCc1c(C)nc2c3cccnc3nn2c1C,–,"inconclusive: 29.1 µM [inhibitor, single point]"
O=C1CC(c2ccco2)Cc2nc(N3CCc4ccccc4C3)ncc21 (centres undefined),–,"inconclusive: 20.6 µM [inhibitor, single point]"
O=C(COc1ccccc1C(=O)Nc1ccccc1)Nc1ccc2ccccc2c1,–,"inconclusive: 4.47 µM [inhibitor, full curve, poor fit]"
O=S(=O)(c1ccccc1)c1nc(-c2ccccc2)oc1N1CCOCC1,–,"inconclusive: 29.1 µM [inhibitor, single point]"
COc1ccc(CNC(=O)C(CCSC)NS(=O)(=O)c2ccc3c(c2)oc(=O)n3C)cc1 (centres undefined),inactive: -15.9%,–
O=C(Cn1cc2c(n1)CCCCC2)N1CCc2ccccc21,–,"inconclusive: 29.1 µM [inhibitor, single point]"
COc1ccc(CNC(=O)CN(c2ccc(C)cc2)S(=O)(=O)c2c(C)noc2C)cc1,–,"inconclusive: 18.4 µM [inhibitor, single point] and inconclusive: 29.1 µM [inhibitor, single point]"
O=C(Nc1cc(F)c(Br)cc1F)c1ccc(Cl)cc1,–,"inconclusive: 32.6 µM [inhibitor, single point]"
O=C1N2CCCCC1(Sc1ccccc1)CCC2 (centres undefined),inactive: 12.9%,–
COc1ccccc1N1CCN(C(=O)C2CCN(C(=O)c3ccc(C(C)(C)C)cc3)CC2)CC1,–,"inconclusive: 29.1 µM [inhibitor, single point]"
CCOC(=O)c1c(CC(C)C)csc1/N=C/C1=C(O)CCCC1=O,–,"inconclusive: 18.4 µM [inhibitor, single point]"
COc1cccc(N2CCN(C(=S)Nc3ccccc3OC)CC2)c1,inactive: 19.3%,–
CCc1cc2c(=O)n(CC(=O)NC3CCCCC3)cnc2s1,inactive: 3.27%,–
CCOc1ccc(-c2cc(C(=O)Nc3cccc(C(F)(F)F)c3)[nH]n2)c(C)c1,–,"inconclusive: 7.31 µM [inhibitor, partial curve]"

SMILES,"activity change, negative = growth inhibition",Potency
CNC(=O)C(=O)NCC(c1ccc2c(c1)OCO2)N1CCOCC1 (centres undefined),inactive: 1.46%,–
COC(=O)[C@H]1C[C@H](OC(=O)NCC2CCCCC2)[C@@]2(O)CN(S(=O)(=O)c3ccc(C)cc3)CC2[C@H]1C(=O)OC (some centres undefined),–,"inconclusive: 20.6 µM [inhibitor, single point]"
Cc1cc(C)cc(NC(=O)CSc2nc3c([nH]c4ccccc43)c(=O)n2-c2ccc(F)cc2)c1,–,active: 8.2 µM
FC(F)(F)c1cccc(-c2cc3ccccc3nc2N2CCCC2)c1,–,"inconclusive: 20.6 µM [inhibitor, single point]"
CCOc1ccc2[nH]c(C)c(CN3CCN(C)CC3)c(=O)c2c1,inactive: -8.31%,–
C/C=C/Cn1c(N2CCCCCC2)nc2c1c(=O)[nH]c(=O)n2C,–,"inconclusive: 16.4 µM [inhibitor, single point]"
CC1(C(=O)NS(=O)(=O)c2ccc(F)cc2F)CCN1C(=O)C1(c2ccc(Cl)cc2)CC1 (centres undefined),–,"inconclusive: 29.1 µM [inhibitor, single point]"
COc1ccccc1C(NC(C)=O)c1c(O)ccc2ccc(O)cc12 (centres undefined),inactive: 2.27%,–
CN1CCN(c2nc(-c3ccccc3)nc3c2oc2ccccc23)CC1,–,"inconclusive: 29.1 µM [inhibitor, single point]"
CCN(CC)c1cc(C)c2cc(NC(=O)c3cccs3)ccc2n1,–,active: 16.4 µM
CSc1nccc(-c2c(-c3ccc(Cl)cc3)noc2C)n1,–,"inconclusive: 29.1 µM [inhibitor, single point]"
O=S(=O)(NCc1ccccc1)c1cccc2nonc12,inactive: -5.12%,–
COc1ccc(C(Nc2ccccn2)c2c(NC(=O)c3ccco3)sc(C)c2C)cc1OC (centres undefined),–,"inconclusive: 29.1 µM [inhibitor, single point]"
CCOc1ccc(-c2cc(NC(=O)c3cccc(Cl)c3)c(C(=O)OC)s2)cc1,inactive: -9.83%,–
COc1ccc([C@H]2/C=C\CN(S(=O)(=O)/C=C/c3ccccc3)[C@@H](C)C(=O)N2Cc2ccc(F)cc2)cc1,–,"inconclusive: 29.1 µM [inhibitor, single point]"
Cc1cc(C)cc(NS(=O)(=O)c2ccc(NC(=S)NC(=O)c3ccc(Br)o3)cc2)c1,–,active: 16.4 µM
CCCOc1ccc(N2C(=O)C/C(=C\c3ccccc3)C2=O)cc1,–,"inconclusive: 7.31 µM [inhibitor, partial curve]"
Cc1cc(-c2nnc(SCC(=O)Nc3nc(-c4ccc(Cl)cc4)cs3)o2)no1,–,"inconclusive: 13 µM [inhibitor, partial curve]"
CCC(C)(C)NC(=O)C1CCCN(S(=O)(=O)c2ccc3c(c2)CC(C)N3C(=O)C2CC2)C1 (centres undefined),–,"inconclusive: 23.1 µM [inhibitor, single point]"
COc1cc(/C=C/C(=O)N2CCCc3ccccc32)cc(OC)c1OC,–,"inconclusive: 25.9 µM [inhibitor, single point]"
CCC1(C)Cc2ccccc2-c2c1c(=O)n(-c1ccc(C)cc1)c1nnnn21 (centres undefined),–,"inconclusive: 8.2 µM [inhibitor, partial curve]"
CC(C)OC(=O)CSc1nnc2c3ccccc3n(C)c2n1,inactive: -15%,–

# Reference: PubChem BioAssay AID686979 (National Center for Advancing Translational Sciences (NCATS), 2013)
